{"source": "PubChem BioAssay AID1508642", "about": "(National Center for Advancing Translational Sciences (NCATS), 2021)", "note": "The campaign covered roughly 43,000 compounds. About 200 (0.47%) were called active. Roughly 12% stayed inconclusive and do not appear here. The call rests on the fitted dose curve; in most records, active means well fitted cell-killing curve with a large enough effect; inconclusive means small, poorly fitted or top-dose-only effect, or effect the other way; inactive means flat fitted curve, though single readings scatter. This is one part of the list.", "data": [{"assay": "Cell viability qHTS assay in S16 Pmp22-F2sN cells; further: on the % scale 0 is the no-effect control and ±100 the full control effect; nearly all actives have a fitted effect of over 65% in size", "details": "S16 Pmp22-F2sN Schwann cells (luciferase reporters placed in the Pmp22 gene) viability, CellTiter-Glo, 24 h; series mostly up to 57.5 µM; activity change, negative = cytotoxicity: at the top concentration", "outline": "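Luminescence from CellTiter-Glo, read by CCD camera after a 15 min room-temperature incubation, served as the viability signal. Reporter Schwann cells (S16 Pmp22-F2sN) had been treated with pin-transferred compounds for 24 h at 37C.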", "values": [{"molecule": "O=C(NCc1ccccc1Br)C1CCCN(C(=O)N2CCOc3ccccc32)C1", "note": "(stereo unspecified)", "activity change, negative = cytotoxicity": "inactive: 2.78%"}, {"molecule": "COCCCNC(=O)Cn1c(=O)n(Cc2ccc(C(=O)NCc3ccc(C)cc3)cc2)c(=O)c2ccccc21", "activity change, negative = cytotoxicity": "inactive: 18.8%"}, {"molecule": "Cc1ccc(NC(=O)CSc2nc(C)c(Cc3ccccc3)c(=O)[nH]2)cc1", "activity change, negative = cytotoxicity": "inactive: 9.39%"}, {"molecule": "COC(=O)c1ccc(NC(=O)CSc2nc3ccc(OC)cc3[nH]2)cc1", "activity change, negative = cytotoxicity": "inactive: 2.72%"}, {"molecule": "Cc1ccc(CCNC(=O)c2ccc3c(=O)n(-c4ccc(C)cc4)c(=O)[nH]c3c2)cc1", "activity change, negative = cytotoxicity": "inactive: -1.04%"}, {"molecule": "CCOc1cccc2sc(NC(=O)c3ccc(S(=O)(=O)N4CCCc5ccccc54)cc3)nc12", "activity change, negative = cytotoxicity": "inactive: -9.95%"}, {"molecule": "Cc1ccccc1S(=O)Cc1ccc(C(=O)NC2CCCCCC2)o1", "note": "(stereo unspecified)", "activity change, negative = cytotoxicity": "inactive: 6.73%"}, {"molecule": "CCOC(=O)c1ccc(CN(Cc2ccc(F)cc2)S(=O)(=O)c2ccc(F)cc2)cc1", "activity change, negative = cytotoxicity": "inactive: 6.5%"}, {"molecule": "CCCOc1ccc(C2c3c(oc4ccccc4c3=O)C(=O)N2c2ccc(C)cn2)cc1OCC", "note": "(stereo unspecified)", "activity change, negative = cytotoxicity": "inactive: -1.21%"}, {"molecule": "Cc1ccc(C)c(NC(=O)Nc2nnc(N(CC(C)C)CC(C)C)s2)c1", "activity change, negative = cytotoxicity": "inactive: -3.49%"}, {"molecule": "O=C(Cn1cc(SCc2cccc(F)c2)c2ccccc21)N1CCCC1", "activity change, negative = cytotoxicity": "inactive: -4.43%"}, {"molecule": "Cc1cc2oc(C(=O)Nc3sc4c(c3C(=O)NCc3ccco3)CCC4)cc(=O)c2cc1C", "activity change, negative = cytotoxicity": "inactive: 0.64%"}, {"molecule": "Cc1ccc2c(CNCc3cccc(Cl)c3)c(C(=O)O)n(Cc3ccc(F)cc3Cl)c2c1", "activity change, negative = cytotoxicity": "inactive: -1.69%"}, {"molecule": "COc1ccc2oc(=O)c(-c3nc(-c4cc(OC)c(OC)c(OC)c4)no3)cc2c1", "activity change, negative = cytotoxicity": "inactive: 0.724%"}, {"molecule": "O=C(CNS(=O)(=O)c1cccs1)N1CCN(c2ccccc2Cl)CC1", "activity change, negative = cytotoxicity": "inactive: 6.28%"}, {"molecule": "COc1cc(OC)c(NS(=O)(=O)c2cc3c(cc2C)NC(=O)CO3)cc1Cl", "activity change, negative = cytotoxicity": "inactive: 1.27%"}, {"molecule": "CC(=O)c1ccc(N2CCN(C(=O)C3CCN(S(=O)(=O)c4ccc(Br)s4)CC3)CC2)cc1", "activity change, negative = cytotoxicity": "inactive: -4.49%"}, {"molecule": "COCCCNC(=O)c1cn(CC(C)C)c(=O)c2c1c1ccccc1n2C", "activity change, negative = cytotoxicity": "inactive: -12.9%"}, {"molecule": "CCN(Cc1ccccc1)C(=O)CCS(=O)(=O)c1cc2c(cc1Cl)NC(=O)CO2", "activity change, negative = cytotoxicity": "inactive: 9.25%"}, {"molecule": "Cc1ccc(NC(=O)c2nc(S(C)(=O)=O)ncc2N(Cc2ccco2)Cc2ccccc2F)c(C)c1", "activity change, negative = cytotoxicity": "inactive: -1.93%"}, {"molecule": "CCCN(Cc1cccs1)C(=O)Nc1cc(C)ccc1OC", "activity change, negative = cytotoxicity": "inactive: 12.6%"}, {"molecule": "COc1ccccc1N1CCN(c2nc3ccc(C(=O)c4ccccc4)cc3n3c(C)nnc23)CC1", "activity change, negative = cytotoxicity": "inactive: -3.63%"}, {"molecule": "CCc1nn(CC(=O)Nc2ccc(C)c(F)c2)c(=O)c2cc3cc(C)ccc3n12", "activity change, negative = cytotoxicity": "inactive: -3.27%"}, {"molecule": "COc1ccc(OC)c(CNC(=O)C2CCN(S(=O)(=O)N3CCCCC3)CC2)c1", "activity change, negative = cytotoxicity": "inactive: 9.94%"}, {"molecule": "CCCCN1CC(c2nc3ccccc3n2CCCCOc2ccccc2C)CC1=O", "note": "(stereo unspecified)", "activity change, negative = cytotoxicity": "inactive: -16.6%"}, {"molecule": "CC(=O)OC1=CN(Cc2ccccc2)S(=O)(=O)c2ccccc21", "activity change, negative = cytotoxicity": "inactive: -3.57%"}, {"molecule": "COc1ccc(OC)c(S(=O)(=O)NCCc2sc(-c3cccnc3)nc2C)c1", "activity change, negative = cytotoxicity": "inactive: 13.7%"}, {"molecule": "CCOc1ccc(-c2nnc(SCC(=O)Nc3ccccc3C(F)(F)F)o2)cc1", "activity change, negative = cytotoxicity": "inactive: 10.9%"}, {"molecule": "O=C(COc1ccc(F)cc1)Nc1ccc2nc(SCC(=O)N3CCCC3)sc2c1", "activity change, negative = cytotoxicity": "inactive: 4.67%"}, {"molecule": "COc1ccccc1N1CCN(C2C(=O)c3ccccc3N2C(C)=O)CC1", "note": "(stereo unspecified)", "activity change, negative = cytotoxicity": "inactive: 0.898%"}, {"molecule": "Cc1ccc(-c2cn3c(n2)sc2cc(C(=O)NCCC4=CCCCC4)ccc23)c(C)c1", "activity change, negative = cytotoxicity": "inactive: 4.24%"}, {"molecule": "CCOc1ccc(S(=O)(=O)NCC(c2ccc(N(C)C)cc2)N2CCCC2)cc1", "note": "(stereo unspecified)", "activity change, negative = cytotoxicity": "inactive: 8.79%"}, {"molecule": "Cc1nc2c(c(C)c1CCC(=O)N1CCN(c3ccccc3)CC1)c(=O)n(C)c(=O)n2C", "activity change, negative = cytotoxicity": "inactive: 1.7%"}, {"molecule": "COc1ccc(C2C=C(c3ccccc3)Nc3nc(NS(=O)(=O)c4ccccc4)nn32)cc1", "note": "(stereo unspecified)", "activity change, negative = cytotoxicity": "inactive: 1.91%"}, {"molecule": "Cc1cc(C)c(S(=O)(=O)Nc2ccc3oc4c(c3c2)CCCC4)cc1C", "activity change, negative = cytotoxicity": "inactive: -14.6%"}, {"molecule": "CC(CNC(=O)CCn1c(=O)c2cccn2c2ccc(F)cc21)c1ccccc1", "note": "(stereo unspecified)", "activity change, negative = cytotoxicity": "inactive: -0.765%"}, {"molecule": "CCOC(=O)c1ccccc1NC(=O)CSc1c(C)cnc2c1c(=O)n(C)c(=O)n2C", "activity change, negative = cytotoxicity": "inactive: 1.46%"}, {"molecule": "Cc1ccc(C)c(Cn2c(=O)n(-c3ccc(Cl)cc3)c(=O)c3c4c(sc32)CCC4)c1", "activity change, negative = cytotoxicity": "inactive: -1.65%"}, {"molecule": "COc1ccc(CCNC(=O)C2CC(=O)N(CCc3ccccc3)C2)cc1OC", "note": "(stereo unspecified)", "activity change, negative = cytotoxicity": "inactive: 4.29%"}, {"molecule": "COc1cccc(NC(=O)c2c(-c3ccc(C)cc3)nnc3ccccc23)c1", "activity change, negative = cytotoxicity": "inactive: -3.37%"}, {"molecule": "O=C(Nc1cccc(Cl)c1Cl)c1cc(S(=O)(=O)N2CCCCC2)ccc1F", "activity change, negative = cytotoxicity": "inactive: -4.41%"}, {"molecule": "Cc1cc(F)ccc1NC(=O)Cn1cc(S(=O)(=O)NC(C)C)c(S(=O)(=O)NC(C)C)c1", "activity change, negative = cytotoxicity": "inactive: -0.0025%"}, {"molecule": "CCCCSc1nc2sc3c(c2c(=O)n1-c1ccccc1C)CC(C)(C)OC3", "activity change, negative = cytotoxicity": "inactive: 16.5%"}, {"molecule": "Cc1ccc2onc(CC(=O)N3CCN(c4cccc(Cl)c4)CC3)c2c1", "activity change, negative = cytotoxicity": "inactive: -9.56%"}, {"molecule": "COc1ccc(NC(=O)Cn2c(=O)oc3cc(S(=O)(=O)N4CCCCCC4)ccc32)cc1OC", "activity change, negative = cytotoxicity": "inactive: -6.47%"}, {"molecule": "COc1cccc(C(=O)Nc2c(C(=O)Nc3ccc(F)cc3)oc3ccccc23)c1OC", "activity change, negative = cytotoxicity": "inactive: 17.8%"}, {"molecule": "CCOc1ccc(C(=O)Nc2nnc(SCc3cc(=O)n4ccccc4n3)s2)cc1", "activity change, negative = cytotoxicity": "inactive: -2.05%"}, {"molecule": "Cc1ccc(NC(=O)c2cnc(N3CCCC3)nc2C)cc1F", "activity change, negative = cytotoxicity": "inactive: -3.18%"}, {"molecule": "CCN(Cc1ccccc1)S(=O)(=O)c1cc(Br)cc2c1N(C(=O)C1CC1)CC2", "activity change, negative = cytotoxicity": "inactive: 8.6%"}, {"molecule": "CCOc1ccc(-n2cc(-c3ccccc3)c3c(Nc4cccc(F)c4)ncnc32)cc1", "activity change, negative = cytotoxicity": "inactive: 24.2%"}, {"molecule": "COc1ccc(NC(=O)CNC(=O)Cn2c(C)cc3ccccc3c2=O)c(OC)c1", "activity change, negative = cytotoxicity": "inactive: 22.2%"}, {"molecule": "O=C(c1ccccc1)N1CCN(CCc2ccccn2)CC1", "activity change, negative = cytotoxicity": "inactive: -0.0815%"}, {"molecule": "COc1ccc(N2CCN(Cc3nc4c(c(=O)[nH]c(=O)n4C)n3Cc3ccccc3C)CC2)cc1", "activity change, negative = cytotoxicity": "inactive: 6.43%"}, {"molecule": "Cc1csc2nc(COC(=O)CNC(=O)c3ccccc3)cc(=O)n12", "activity change, negative = cytotoxicity": "inactive: 8.18%"}, {"molecule": "COC(=O)c1ccc(NC(=O)C(=O)NCCc2csc(-c3ccc(F)cc3)n2)cc1", "activity change, negative = cytotoxicity": "inactive: 0.306%"}, {"molecule": "Cc1ccc(O)c(NC(=O)C2=CC(c3ccco3)=NS(=O)(=O)N2C)c1", "activity change, negative = cytotoxicity": "inactive: -0.753%"}, {"molecule": "O=C(CSc1ncccc1C(=O)Oc1ccccc1Cl)Nc1ccc(C(F)(F)F)cc1Cl", "activity change, negative = cytotoxicity": "inactive: -2.39%"}, {"molecule": "CCN(CC)S(=O)(=O)c1ccc2c(c1)N(CC(=O)Nc1cccc(C#N)c1)C(=O)CO2", "activity change, negative = cytotoxicity": "inactive: -3.93%"}, {"molecule": "CCc1nnc(NC(=O)CSc2nc3c([nH]c4ccccc43)c(=O)n2-c2ccc(Cl)cc2)s1", "activity change, negative = cytotoxicity": "inactive: 11.4%"}, {"molecule": "FC(F)(F)c1cc(-c2ccccc2)nc2cc(-c3ccccc3)nn12", "activity change, negative = cytotoxicity": "inactive: 0.345%"}, {"molecule": "Cc1ccc(CN(C(=O)COc2ccccc2[N+](=O)[O-])c2ccccn2)o1", "activity change, negative = cytotoxicity": "inactive: 4.01%"}]}]}
